Experimental data: patent US20250084178A1 (ARCUS BIOSCIENCES, published 2025)

What was measured:
[1] = biological target: T1, human CD39 expressed on the cell surface (human, UniProt P49961 1-510); assay: cell-based or functional assay
T1 sequence: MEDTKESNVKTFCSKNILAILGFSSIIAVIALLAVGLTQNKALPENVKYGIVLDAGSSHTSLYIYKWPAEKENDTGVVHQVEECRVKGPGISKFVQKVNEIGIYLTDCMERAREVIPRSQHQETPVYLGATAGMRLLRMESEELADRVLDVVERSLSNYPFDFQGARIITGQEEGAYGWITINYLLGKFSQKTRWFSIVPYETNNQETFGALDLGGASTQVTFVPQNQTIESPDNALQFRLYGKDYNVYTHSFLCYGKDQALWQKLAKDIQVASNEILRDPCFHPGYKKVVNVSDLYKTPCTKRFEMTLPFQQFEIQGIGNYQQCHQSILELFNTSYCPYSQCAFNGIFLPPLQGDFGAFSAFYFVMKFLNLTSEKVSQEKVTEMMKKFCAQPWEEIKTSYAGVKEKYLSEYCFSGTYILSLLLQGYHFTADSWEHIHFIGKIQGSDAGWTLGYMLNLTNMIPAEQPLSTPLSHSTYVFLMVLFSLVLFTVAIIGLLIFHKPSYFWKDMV

[2] = biological target: T1, human CD39 expressed on the cell surface; assay: flow cytometry on purified human CD14+ monocytes, 0 uM ATP
[3] = biological target: T1, human CD39 expressed on the cell surface; assay: flow cytometry on purified human CD14+ monocytes, 400 uM ATP
[4] = biological target: T1, human CD39 expressed on the cell surface; assay: cell-based or functional assay; remark: listed apart in the source
[5] = biological target: T1, human CD39 expressed on the cell surface; assay: cell-based or functional assay; remark: listed apart in the source

| Binder | IC50, CD39 enzymatic inhibition on human monocytes, 400 uM ATP [1] [nM] | Max Inhibition (%), human monocytes, 400 uM ATP [1] [%] | EC50 [2] [nM] | EC50 [3] [nM] | IC50, CD39 enzymatic inhibition on SK-MEL-5 cells, 20 uM ATP [4] [nM] | Max Inhibition (%), SK-MEL-5 cells [4] [%] | IC50, CD39 enzymatic inhibition on THP-1 cells, 20 uM ATP [5] [nM] | Max Inhibition (%), THP-1 cells [5] [%] |
| --- | --- | --- | --- | --- | --- | --- | --- | --- |
| hu31.2_IGG4.P (antibody, human IgG4 S228P, kappa, V domains shown, humanized variant of antibody 31, IgG4 (S228P)) VH: QVQLVQSGAEVKKPGASVKVSCKVSGDSITAYFMHWVRQAPGKGLEWMGRIDPDHERTKYAEKFKNRVTMTSDTSTNTVYMELSSLRSEDTAVYYCATERVPGFETDYWGQGTMVTVSS VL: DIVLTQSPALAVSPGQRATITCRTQQTVDHYGTTYMNWYQQKPGQPPKLLIYLASSLASGVPARFSGSGSGTDFTLTINPVEANDTANYYCQQSRNLWTFGGGTKVEIKR | 0.87 | 71 | 15 | 25 |  |  |  |  |
| hu31.3_IGG4.P (antibody, human IgG4 S228P, kappa, V domains shown, humanized variant of antibody 31, IgG4 (S228P)) VH: QVQLVQSGAEVKKPGASVKVSCKVSGDSITAYFMHWVRQAPGKGLEWMGRIDPDHERTKYAEKFKNRVTMTSDTSTNTVYMELSSLRSEDTAVYYCATERVPGFETDYWGQGTMVTVSS VL: DIVLTQSPALAVSPGQRATITCRTNPTVDHYGTTYMNWYQQKPGQPPKLLIYLASSLASGVPARFSGSGSGTDFTLTINPVEADDTANYYCQQSRNLWTFGGGTKVEIKR |  |  | 7.7 | 26 | 0.61 | 71 | 0.08 | 79 |
